Reference: PubChem BioAssay (NCI)
Several values for one entry are separate records, joined by “and”; a condition that tells them apart may be missing. Identical values can stand only once.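 Results reflect a 48-hour exposure of cells in 96-well plates to compound at five concentrations. GI50 is the concentration that inhibits growth by half. TGI denotes the concentration required for complete inhibition of growth.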 Peptide text beside a SMILES is read from it. * marks the point of attachment. Boc = CC(C)(C)OC(=O)*; Bn = c1ccc(C*)cc1

Test system: NCI-H322M lung
Assay: NCI anticancer screen, dose series, 48 h

SMILES | TGI | GI50 [µM]
O=c1cc[nH]c(=O)[nH]1 | > 1000 µM | –
O=c1oc2ccccc2cc1-c1cc2ccccn2c1 | > 100 µM | –
C=CCc1cccc2cc(C(=O)NCc3ccccc3)c(=N)oc12 | 82.7 µM | –
CCCC(=O)OCC1OC(n2ccc(N)nc2=O)C(OC(=O)CCC)C1OC(=O)CCC (centres undefined) | > 100 µM | –
CCCCCCCCCCCCCC(=O)OCC(C[As](=O)(O)O)OC(=O)CCCCCCCCCCCCC (centres undefined) | > 100 µM | –
COC(=O)/C=C(\C(=O)OC)C1C(=O)Oc2c(C)c(=O)c3ccccc3n21 (centres undefined) | > 100 µM | –
CC/C=C\C[C@H](O)C/C=C1/C(=O)C(Cl)=C[C@@H]1C/C=C\CCCC(=O)OC | 4.37 µM | 2.02
COc1cccc(CC(C)=C(c2ccc(OCCN(C)C)cc2)c2ccc(OCCN(C)C)cc2)c1 | 8.57 µM | 4.27
O=C(/C=C/c1ccccc1)CCC1C(=O)c2ccccc2C1=O | > 100 µM | –
O=C1/C(=C/c2ccc(Br)s2)NC(=S)N1c1ccccc1 | > 100 µM | –
O=C(CCN(C(=O)O)S(=O)(=O)c1ccc(NC(=O)c2ccccc2)cc1)Nc1ccccc1 | > 100 µM | –
O=c1[nH]cnc2c1cnn2Cc1cn(CCCCO)nn1 | > 100 µM | –
Cc1cc(Nc2ccc(NC(=O)c3ccc(Nc4ccnc5ccccc45)cc3)cc2)nc(N)n1 | 5.9 µM | 1.92
COc1cccc2c1C(=O)c1c(O)c3c(c(O)c1C2=O)C[C@@](O)(C(=O)CO)C[C@@H]3OC1CC(N)CC(C)O1 (some centres undefined) | 0.824 µM and 1.02 µM | 0.131
O=C(O)C(O)C(O)C(O)C(O)c1nc2ccccc2s1 (centres undefined) | 75.5 µM | –
COC(=O)C1=C(OC(=O)/C(=C/c2ccc(Cl)cc2)c2ccc(Cl)cc2)C(C(=O)OC)[C@@]2(O)[C@@H](C(=O)OC)[C@H](C)C[C@@H]1[C@@H]2C(=O)OC (some centres undefined) | > 100 µM | –
CO/N=C(/C)c1cccc(Nc2cc(-n3nnc4ccccc43)nc3ccccc23)c1 | 71.8 µM | 11.6
CC(=O)OC1COC(Oc2c(C)c3c4c(c2O)[C@@H](C)CC[C@@H]4[C@@H](C)C[C@H]3C=C(C)C)C(O)C1OC(C)=O (some centres undefined) | 30.9 µM | 16.1
Cn1c(=O)c2c(ncn2CCNC(CO)C(O)c2ccc([N+](=O)[O-])cc2)n(C)c1=O (centres undefined) | > 100 µM | –
COc1cc(C2C3C=CC=C4CC=CC(=C43)C3CCC(=O)N32)cc(OC)c1OC (centres undefined) | > 100 µM | –
CC1(C)CC(=O)C(C=NC(=S)c2ccccc2)=C(O)C1 | > 100 µM | –
COc1ccc(OC)c2c1[nH]c(=O)c1c3ccccc3cn21 | 3.52 µM | 1.46
O=C(Nc1ccccc1)c1cc(S(=O)(=O)NC2=NC(c3ccccc3)c3cc(Cl)ccc3N2)c(SSc2cc(Cl)c(C(=O)Nc3ccccc3)cc2S(=O)(=O)NC2=NC(c3ccccc3)c3cc(Cl)ccc3N2)cc1Cl (centres undefined) | > 100 µM | –
COc1cccc(F)c1C(=O)c1cnc(NC2CCN(S(C)(=O)=O)CC2)nc1N | 24.9 µM | 5.87
COc1cc(-c2oc(=O)ccc2C#Cc2ccccn2)cc(OC)c1OC | > 100 µM | > 23
N#Cc1n[nH]n(-c2ccc(Br)cc2)c1=O | > 100 µM | –
CCN1CCN(C(=O)[C@@]2(C)CC[C@]3(C)CC[C@]4(C)C(=CC(=O)[C@@H]5[C@@]6(C)CC[C@H](OC7C[C@@H](O)[C@@H](O)C(C)O7)C(C)(C)[C@@H]6CC[C@]54C)[C@@H]3C2)CC1 (some centres undefined) | 7.59 µM | 2.01

SMILES | TGI | GI50 [µM]
COC(=O)C1=C(C(=O)OC)N(c2ccc(OC)cc2[N+](=O)[O-])C(c2ccc(C)cc2)=CC1c1ccc(OC)cc1OC (centres undefined) | > 80.4 µM | –
COc1ccc(Sc2[nH]c(C(C)=O)c3ccccc23)cc1 | 48.2 µM | 13
Cc1cc(C)c2c(n1)sc1c(Nc3ccc(Cl)cc3)ncnc12 | > 100 µM | 0.914
O=C1Nc2cccc(Cl)c2/C1=C\c1c(Cl)nc2n1CCS2 | > 100 µM | –
Cc1c(C)c2c(c(N)c1C#N)C(=O)N(NC(=O)c1ccccc1)C2=O | > 100 µM | –
CN=C(n1ccnc1)n1ccnc1 | > 100 µM | –
CCOC(=O)CCC(NC(=O)Cc1ccc(Nc2nc3cc(F)c(F)cc3nc2C(=O)OCC)cc1)C(=O)OCC (centres undefined) | > 100 µM | –
CC(=O)CCn1ncc(Cl)c(Cl)c1=O | 31.3 µM | –
COc1ccc(/C=C\[N+](=O)[O-])cc1OC | 17.4 µM | 3.24
[N-]=[N+]=Nc1c([N+](=O)[O-])c(=O)n(-c2ccccc2)c2ccccc12 | 72.2 µM | –
O=C1C=CC(=O)c2c1ccc1c3ccccc3n(CCCCCn3c4ccccc4c4ccc5c(c43)C(=O)C=CC5=O)c21 | > 100 µM | –
CCOc1ncn(-c2ccc(NC(=S)Nc3ncccn3)cc2)n1 | > 100 µM | –
CCOC1(OCC)C2C=CC1C(COS(=O)(=O)c1ccc(C)cc1)C2COS(=O)(=O)c1ccc(C)cc1 (centres undefined) | > 100 µM | –
C/C=C/C(CC(O)(C(F)(F)F)C(F)(F)F)=N/NC(N)=S | > 10 µM | –
Nc1ccc([N+](=O)[O-])cc1N=C/C=C/c1ccccc1 | > 100 µM | 25.9
Cc1ccc(/C=N/Nc2cc(C)c3cccc(C)c3n2)s1 | 16.3 µM | –
CN1C(=O)c2ccccc2OC12C=Cc1c(ccc3ccccc13)O2 (centres undefined) | > 76.6 µM | –
Cc1ccc(S(=O)(=O)Nc2ccccc2C=O)cc1 | 53 µM | –
CCCNC(=O)NNC(=O)c1c[nH]c2nc(C)ccc2c1=O | > 100 µM | –
Cc1ccc(C2SCC(=O)N2c2ccc(-n3c(-c4ccccc4)nc4ccccc4c3=O)cc2)cc1 (centres undefined) | > 100 µM | –
CCOC(=O)C1=CN(C)C=C(C(=O)OCC)C1c1cc(Br)c(OCC)c(OC)c1 | > 100 µM | > 100
Clc1ccc2c(c1)[nH]c1c2nc2ccccn21 | > 100 µM and 38.4 µM | –
CCN(CC)CCCN1CCc2c([nH]c3ccccc23)C1c1cccnc1 (centres undefined) | > 100 µM | –
Cc1ccc(-n2cnc(C(=N)C#N)c2N)cc1 | > 100 µM | –
C(=NCCN1CCOCC1)=NC1CCCCC1 | > 100 µM | –
CC(=O)N(C(C)=O)c1ncc(-n2nc(-c3ccccc3)cc2-c2ccccc2)c(-c2ccccc2)n1 | > 10 µM | –
COC(=O)C(CC(C)C)NC(=O)C(C)NC(=O)C(Cc1ccc(OCc2ccccc2)cc1)NC(=O)C(COCc1ccccc1)NC(=O)OC(C)(C)C (centres undefined) (Boc-S(Bn)Y(Bn)AL-OMe; configuration not given here) | > 100 µM | –
